Test [1] relates to HSkMC (human skeletal muscle cells). Briefly: cytotoxicity call (relative viability < 0.9). To be noted: 10 µM.
Test [2] relates to HepG2. Briefly: cytotoxicity call (relative viability < 0.9). To be noted: 10 µM.
The test system of test [3] is S. aureus RN4220. The test is described as follows: growth inhibition call (relative growth <= 0.2). The note with it: 50 µM.

From the antibiotic and cytotoxicity screens of Wong et al. (2023) come the findings set out here.

Molecules are shown by their SMILES. This is one part of the list.

For the compound `C[C@@H]1CN([C@@H](C)CO)C(=O)c2cc(NC(=O)Nc3ccccc3)ccc2O[C@@H](C)CCCCO[C@@H]1CN(C)Cc1ccncc1`, the cytotoxicity call in test [1] and in test [2] was “inactive” each time. For the same compound, the growth inhibition call in test [3] was “inactive”.

In the case of `C[C@H]1CN([C@@H](C)CO)C(=O)c2cccc(NC(=O)Nc3cccc4ccccc34)c2O[C@@H]1CN(C)C(=O)Nc1ccc(C(F)(F)F)cc1`, the cytotoxicity call in test [1] and in test [2] was “active” in each case. Besides, in test [3], the growth inhibition call was “inactive”.

Take `O=C(C[C@@H]1CC[C@@H]2[C@H](COC[C@@H](O)CN2S(=O)(=O)c2ccc(F)cc2)O1)NCCN1CCCCC1`: the cytotoxicity call in test [1] and in test [2] was “inactive” throughout. Besides, the growth inhibition call in test [3] is “inactive”.

`Cc1noc(C)c1S(=O)(=O)Nc1ccc2c(c1)C(=O)N([C@H](C)CO)C[C@@H](C)[C@H](CN(C)S(=O)(=O)c1cccs1)O2`: the cytotoxicity call in test [1] and in test [2] was “inactive” each time. The growth inhibition call in test [3] is “inactive”.

Consider `C[C@H](CO)N1C[C@H](C)[C@H](CN(C)C(=O)Nc2ccccc2C(F)(F)F)OCc2cn(nn2)CCCC1=O`, for which the cytotoxicity call in test [1] and in test [2] was “inactive” each time. Besides, the growth inhibition call in test [3] is “inactive”.

Turning to `C[C@@H]1CN([C@@H](C)CO)C(=O)c2cccc(NC(=O)Nc3ccccc3)c2O[C@@H]1CN(C)C(=O)Nc1ccc(C(F)(F)F)cc1`, the cytotoxicity call in test [1] and in test [2] was “inactive” each time. Further, the growth inhibition call in test [3] was “inactive”.

As for `NCC[C@H]1CC[C@H](NC(=O)NC2CCCCC2)[C@H](CO)O1`, the cytotoxicity call in test [1] and in test [2] was “inactive” throughout. In test [3], the growth inhibition call is “inactive”.

In the case of `COc1ccc(CN(C)C[C@@H]2Oc3ccc(NC(=O)Cn4cnnn4)cc3C(=O)N([C@H](C)CO)C[C@H]2C)cc1`, the cytotoxicity call in test [1] and in test [2] was “inactive” in each case. In test [3], the growth inhibition call was “inactive”.

On to `NC(=S)N/N=C/c1ccncc1`, for which the cytotoxicity call in test [1] and in test [2] was “inactive” throughout. In test [3], the growth inhibition call is “inactive”.

Take `CCS(=O)(=O)N1CC[C@]2(CC1)CN(Cc1ccc3c(c1)OCO3)[C@H](CO)c1c2c2ccc(cc2n1C)OC`: the cytotoxicity call in test [1] and in test [2] was “inactive” each time. For the same compound, the growth inhibition call in test [3] is “inactive”.

As to `O=C(C[C@@H]1C=C[C@H](NC(=O)Nc2cc(F)ccc2F)[C@@H](CO)O1)NCCCN1CCOCC1`, the cytotoxicity call in test [1] and in test [2] was “inactive” each time. For the same compound, the growth inhibition call in test [3] is “inactive”.

Consider `COc1ccc(NC(=O)Nc2ccc3c(c2)C(=O)N([C@H](C)CO)C[C@H](C)[C@@H](CN(C)Cc2ccc(C(=O)O)cc2)OCCCC[C@H](C)O3)cc1`, for which the cytotoxicity call in test [1] and in test [2] was “inactive” throughout. In addition, in test [3], the growth inhibition call is “inactive”.

`C[C@@H]1CCCCO[C@@H](CN(C)Cc2ccc(C(F)(F)F)cc2)[C@H](C)CN([C@H](C)CO)C(=O)c2cc(NC(=O)Nc3ccc4c(c3)OCO4)ccc2O1`: the cytotoxicity call in test [1] and in test [2] was “active” each time. For the same compound, the growth inhibition call in test [3] is “inactive”.

As for `COc1ccc(-c2cnc3c(c2)C(=O)N([C@@H](C)CO)C[C@H](C)[C@H](CN(C)S(=O)(=O)c2ccc(OC)cc2)O3)cc1`, the cytotoxicity call in test [1] and in test [2] was “inactive” each time. Besides, the growth inhibition call in test [3] is “inactive”.

Consider `CS(=O)(=O)N1CCN(C[C@@H](O)C2CC2)CC1`, for which the cytotoxicity call in test [1] and in test [2] was “inactive” throughout. Besides, the growth inhibition call in test [3] was “inactive”.

For `NCCCN`, the cytotoxicity call in test [1] and in test [2] was “inactive” in each case. Further, the growth inhibition call in test [3] is “inactive”.

With `CCCNC(=O)N[C@H]1C=C[C@@H](CC(=O)N2CCN(C)CC2)O[C@H]1CO`, the cytotoxicity call in test [1] and in test [2] was “inactive” each time. In addition, the growth inhibition call in test [3] is “inactive”.

In the case of `COc1ccc(S(=O)(=O)Nc2ccc3c(c2)C(=O)N([C@@H](C)CO)C[C@@H](C)[C@H](CN(C)S(C)(=O)=O)O3)cc1`, the cytotoxicity call in test [1] and in test [2] was “inactive” each time. Also, the growth inhibition call in test [3] was “inactive”.

`CNS(=O)(=O)c1ccc(Cl)c(C(N)=O)c1`: the cytotoxicity call in test [1] and in test [2] was “inactive” each time. Also, in test [3], the growth inhibition call is “inactive”.

As for `N#Cc1cc2[nH]c(=O)c(=O)[nH]c2cc1[N+](=O)[O-]`, the cytotoxicity call in test [1] and in test [2] was “inactive” each time. In addition, the growth inhibition call in test [3] was “inactive”.

`CN(C)CCNc1ccc(CN)cc1`: the cytotoxicity call in test [1] and in test [2] was “inactive” in each case. The growth inhibition call in test [3] was “inactive”.

`COC(=O)CCCCC(=O)c1[nH]c(=O)[nH]c1C`: the cytotoxicity call in test [1] and in test [2] was “inactive” each time. In addition, in test [3], the growth inhibition call was “inactive”.

Regarding `Cc1noc(C)c1NC(=O)N(C)C[C@@H]1Oc2ccc(NS(C)(=O)=O)cc2C(=O)N([C@@H](C)CO)C[C@H]1C`, the cytotoxicity call in test [1] and in test [2] was “inactive” in each case. Further, the growth inhibition call in test [3] was “inactive”.

On to `CC1(C)OC(=O)NC1=O`, for which the cytotoxicity call in test [1] and in test [2] was “inactive” throughout. For the same compound, in test [3], the growth inhibition call was “inactive”.

As for `COc1ccc([Si](C)(C)[C@@H]2[C@@H](CCn3cc([C@H](O)c4ccccc4)nn3)O[C@]3(C(=O)N(Cc4ccc(N5CCC5=O)cc4)c4ccccc43)[C@H]2C)cc1`, the cytotoxicity call in test [1] and in test [2] was “inactive” in each case. In test [3], the growth inhibition call was “inactive”.

Consider `C[C@@H]1CN([C@H](C)CO)C(=O)c2c(c3ccccc3n2C)-c2ccccc2CO[C@@H]1CN(C)Cc1ccc(F)cc1`, for which the cytotoxicity call in test [1] and in test [2] was “inactive” in each case. Further, in test [3], the growth inhibition call is “inactive”.

For the compound `C[C@H]1CN([C@@H](C)CO)C(=O)c2cc(NS(=O)(=O)c3ccc(F)cc3)ccc2O[C@H]1CN(C)C(=O)Nc1ccc(C(F)(F)F)cc1`, the cytotoxicity call in test [1] and in test [2] was “inactive” throughout. The growth inhibition call in test [3] was “inactive”.

Take `C[C@H]1CN([C@@H](C)CO)C(=O)CCCn2nncc2CO[C@H]1CN(C)Cc1ccc2c(c1)OCCN2C`: the cytotoxicity call in test [1] and in test [2] was “inactive” throughout. Also, the growth inhibition call in test [3] was “inactive”.

As for `Cc1ccc(S(=O)(=O)N2C[C@@H](O)COC[C@@H]3O[C@@H](CC(=O)NCc4ccc5c(c4)OCO5)CC[C@H]32)cc1`, the cytotoxicity call in test [1] and in test [2] was “inactive” each time. In addition, the growth inhibition call in test [3] is “inactive”.

As to `CO[C@@H]1CN(C)C(=O)c2ccc(NC(=O)Nc3ccccc3F)cc2OC[C@@H](C)N(C(=O)Nc2ccccc2F)C[C@H]1C`, the cytotoxicity call in test [1] and in test [2] was “inactive” each time. Moreover, the growth inhibition call in test [3] is “inactive”.
